Measurements published in the supplement of paper PMC11369174, “Proteome-scale characterisation of motif-based interactome rewiring by disease mutations” (Molecular Systems Biology, 2024).
The other results are listed elsewhere or left out. The data scatter; read single values as rough.

T1: PTK2_Focal-AT__Q05397_891_1050
T1 chain: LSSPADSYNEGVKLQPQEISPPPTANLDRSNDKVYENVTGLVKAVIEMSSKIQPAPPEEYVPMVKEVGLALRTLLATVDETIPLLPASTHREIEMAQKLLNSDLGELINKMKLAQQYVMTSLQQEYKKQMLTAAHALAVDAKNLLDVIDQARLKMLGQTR

T2: RDX_FERM_1_P35241_5_295
T2 chain: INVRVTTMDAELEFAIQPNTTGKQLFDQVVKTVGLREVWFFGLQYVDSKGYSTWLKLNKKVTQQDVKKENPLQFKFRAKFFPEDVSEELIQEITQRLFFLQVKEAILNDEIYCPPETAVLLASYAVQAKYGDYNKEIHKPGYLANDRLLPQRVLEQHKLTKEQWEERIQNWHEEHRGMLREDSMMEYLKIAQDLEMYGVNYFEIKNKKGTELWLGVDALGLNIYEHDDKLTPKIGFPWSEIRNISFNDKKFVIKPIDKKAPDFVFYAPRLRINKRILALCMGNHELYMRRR

T3: PIK3R1_SH3_1_P27986_6_78
T3 chain: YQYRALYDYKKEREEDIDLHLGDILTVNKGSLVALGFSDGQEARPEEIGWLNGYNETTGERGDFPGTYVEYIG


Molecular target: T1, PTK2_Focal-AT__Q05397_891_1050
Experiment: mutation enrichment score (mutant vs wild-type peptide binding to bait); baits are purified protein domains named by gene / domain / UniProt id / residues; peptides come from disordered regions of human proteins; higher = mutation enhances binding relative to wild type
Conditions: number of wild-type / mutant comparisons summed (bounds the score): 5; paper call: no_effect; wild-type window: …
Work on VHIVENEIQASIDQIFSRLECLEILSSKEPPNKRQNARLRV [R50C R50C] yielded a mutation enrichment score of 1. Binder ERVENRRAFLKLRRQQQIERKLNGYMEWISKAEEVILAEDE [E388K E388K] has a mutation enrichment score of -5. Binder NQAKEDRIDPLTLKEMLESIQETAEEPLSIQSLRFLQLELS [R160Q R160Q] has a mutation enrichment score of -2. ARDASSSHRGRNVLTAILLLPRELDAEGLEAVQQTVGSRLQ [L224P L224P] showed a mutation enrichment score of -4. For MAFYSCCWVLLALTWHTSAYSPDQRAQKKGD [L11S L11S], the mutation enrichment score was 2. IDALKGTNDSLMRQMRELEDLFASEASGYQDNIARLEEEIR [R355L R355L] gave a mutation enrichment score of 3. With EIVALVTMTPDQRQDVVRLLELRTAEPEVRAKPYTLEEFSY [Q1699E Q1699E] the mutation enrichment score was 2. RVENRRAFLKLRRQQQIEREFNGYMEWISKAEEVILAEDET [L389F L389F] gave a mutation enrichment score of -5. In the case of TVAYTIPKKQEDSVTELTVEYSGESLEDLMAKMKNM [D389Y D389Y], the mutation enrichment score is reported as 5.

Each binder was assayed against RAN2-B_Ran-BP1-PH-domain__P49792_2924_3050 in the same assay as above. Conditions: number of wild-type / mutant comparisons summed (bounds the score): 12; paper call: enhanced; wild-type window: ….
GISLPEGVDPSFLAALPDDIHREVLQNQLGIRPPTRTAPST [R2981H R2981H] gave a mutation enrichment score of 4.7.

These binders were tested against PPIA_full-length__P62937_1_165, P62937 in the same assay as above. Conditions: number of wild-type / mutant comparisons summed (bounds the score): 6; paper call: no_effect; wild-type window: ….
PPIA_full-length__P62937_1_165, P62937, sequence (P62937 whole entry, looked up): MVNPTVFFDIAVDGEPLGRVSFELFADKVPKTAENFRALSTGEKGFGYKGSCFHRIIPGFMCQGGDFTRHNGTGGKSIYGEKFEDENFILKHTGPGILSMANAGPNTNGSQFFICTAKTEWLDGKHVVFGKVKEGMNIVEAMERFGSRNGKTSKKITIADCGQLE
With SYMFRPVVPASAPHPRPLQEEEMETYGAGTPLGSVASVHSP [V1951E V1951E] the mutation enrichment score was -0.43. PPGVAKPLFRSTQSLPTVDTLAQAAPQTYAEYAISQPLEGA [S52L S52L] showed a mutation enrichment score of 1.5. With PNPETTGEEDEEEPEMPVGPHPRPLSELHLKEKAVPMPEAS [R858H R858H] the mutation enrichment score was 2. Binder LFLGLCDGFFITIMAPIAFEPVGPMQASQAIGYLLGMMALP [L438P L438P] has a mutation enrichment score of -3.

What follows are binders tested against REPS1___Q96D71_226_314 in the same assay as above. Conditions: number of wild-type / mutant comparisons summed (bounds the score): 6; paper call: no_effect; wild-type window: ….
In the case of TSPGSGLILQANFVHSQRREAFLYRSDSDYDLSPKSMSRNS [S190A S190A], the mutation enrichment score is reported as 2. With MVSKLSQLQTELLAALLESGASKEALIQALGEPGPYLLA [S19A S19A] the mutation enrichment score was 1. LPCVRPAPQNPWAQDEWEIPQQSLRLVRKLGSGQFGEVWMG [R238Q R238Q] gave a mutation enrichment score of 2.7. With MGTPWRKRKGIAGPGLPDLSPALVLQPRAQVGTMSP [L16P L16P] the mutation enrichment score was 4. In the case of SGSRDSTPSRPAQQPLSRPIRSPGRNSISPGRNGISPPNKL [Q2322R Q2322R], the mutation enrichment score is reported as -2. For QQSNPCPETGAAFPSKATFWCVSGLVWRGYRRPLRPKDLWS [W218C W218C], the mutation enrichment score was -2. SNAAAAALDKKQRNFDKILAKWKQKYEESQSELESSQKEAR [E1457K E1457K] showed a mutation enrichment score of -3.

Each binder was assayed against RAN2-B_Ran-BP1-PH-domain__P49792_2924_3050 in the same assay as above. Conditions: number of wild-type / mutant comparisons summed (bounds the score): 6; paper call: no_effect; wild-type window: ….
In the case of NPVFSMNPFSAKPLYTALPPESAFPPATFMPPVQTSIPGLR [Q901E Q901E], the mutation enrichment score is reported as 6. With LKQQVSGLEGVQDDLFWLTFKGKPLEDQLPLGEYGLKPLST [E127K E127K] the mutation enrichment score was -5.

Each binder was assayed against RUNX1T1-MYND___Q06455_510_559 in the same assay as above. Conditions: number of wild-type / mutant comparisons summed (bounds the score): 6; paper call: no_effect; wild-type window: ….
Binder MVSKLSQLQTELLAALLESGASKEALIQALGEPGPYLLA [S19A S19A] has a mutation enrichment score of -1.

What follows are binders tested against PTBP1_RRM_2_P26599_157_285 in the same assay as above. Conditions: number of wild-type / mutant comparisons summed (bounds the score): 18; paper call: enhanced; wild-type window: ….
Binder SLCRARQRVEQEQLLASGSLLGSPDVEECAPNTGQCHLCLP [S321L S321L] has a mutation enrichment score of 13.

What follows are binders tested against USP7_MATH-TRAF__Q93009_53_206 in the same assay as above. Conditions: number of wild-type / mutant comparisons summed (bounds the score): 5; paper call: no_effect; wild-type window: ….
USP7_MATH-TRAF__Q93009_53_206, sequence (chain, as listed by the source): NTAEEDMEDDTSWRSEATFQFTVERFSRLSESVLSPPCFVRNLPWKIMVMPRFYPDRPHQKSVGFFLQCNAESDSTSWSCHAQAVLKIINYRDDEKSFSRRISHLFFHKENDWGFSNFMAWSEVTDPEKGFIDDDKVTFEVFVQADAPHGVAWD
Work on SLCRARQRVEQEQLLASGSLLGSPDVEECAPNTGQCHLCLP [S321L S321L] yielded a mutation enrichment score of -3. SITHYRPVSASRSSLDLSYYHTSSSTSFMSSSSSSSSWLTR [P183H P183H] showed a mutation enrichment score of 1.5.

These binders were tested against PTBP1_RRM_2_P26599_157_285 in the same assay as above. Conditions: number of wild-type / mutant comparisons summed (bounds the score): 6; paper call: no_effect; wild-type window: ….
Work on RETGEKLLLATGLDGSYLLRYSESVPGVYCLCVLYHGYIYT [D33Y D33Y] yielded a mutation enrichment score of 3. Binder PPPEDSLMSLPLEESPLLPLHEEPQLCPRSEGPHLSPRPEE [P729H P729H] has a mutation enrichment score of -4. For PGSLGAPDAPSSPRPLGHFSGGGLLKLPEDALVKAESPEKP [V120G V120G], the mutation enrichment score was 5.9. With VGASYEWQSRDTPILLEAPTSLAEGSSLHTPLALPPPQPPQ [G126S G126S] the mutation enrichment score was -0.58. In the case of QQMAEDKASVKAQVTSLLGERQESQSRLEAATKECQALEGR [L153R L153R], the mutation enrichment score is reported as 2.

Molecular target: T2, RDX_FERM_1_P35241_5_295
Experiment: as above
Conditions: number of wild-type / mutant comparisons summed (bounds the score): 6; paper call: no_effect; wild-type window: …
YIHQWEEIFHMTYDLASAVVKIFNLIGMMLLLCHWDGCLQF [R297K R297K] gave a mutation enrichment score of -3. With IDMENMFDLLKEETEVKDLPEAGPLRFQKGRIEFENVHFSY [G579E G579E] the mutation enrichment score was 2. In the case of SITHYRPVSASRSSLDLSYYHTSSSTSFMSSSSSSSSWLTR [P183H P183H], the mutation enrichment score is reported as -5. SITHYRPVSASRSSLDLSYYTTSSSTSFMSSSSSSSSWLTR [P183T P183T] gave a mutation enrichment score of -5.

These binders were tested against PPIA_full-length__P62937_1_165, P62937 in the same assay as above. Conditions: number of wild-type / mutant comparisons summed (bounds the score): 18; paper call: enhanced; wild-type window: ….
QYRQVASPRTDPYSAAQLHNEYGPMNMNMGMNMAAAAAHHH [Q213E Q213E] showed a mutation enrichment score of 5.3.

These binders were tested against PTBP1_RRM_2_P26599_157_285 in the same assay as above. Conditions: number of wild-type / mutant comparisons summed (bounds the score): 12; paper call: enhanced; wild-type window: ….
LMEFRRDASMLNDELSHINAGLNMGILGSYDPQQIFKCKGT [R371G R371G] showed a mutation enrichment score of 12.

Molecular target: T3, PIK3R1_SH3_1_P27986_6_78
Experiment: as above
Conditions: number of wild-type / mutant comparisons summed (bounds the score): 27; paper call: diminished; wild-type window: …
For VHHCTIHGNTEELRQMAASRKVPRPLSTLPMFNVHTGERLP [E352K E352K], the mutation enrichment score was -12.

What follows are binders tested against PPIA_full-length__P62937_1_165, P62937 in the same assay as above. Conditions: number of wild-type / mutant comparisons summed (bounds the score): 12; paper call: enhanced; wild-type window: ….
ILSLLLGTAYSFYLFHPLAYEMVGPLAQDPQSPMAGLRWLD [G726E G726E] showed a mutation enrichment score of 8.5. Work on SPGAAAVVKGLAGPAASYGPNTRVQSMALPPGVVNSYNGLG [Y258N Y258N] yielded a mutation enrichment score of 7.7.

Same assay, conditions: number of wild-type / mutant comparisons summed (bounds the score): 12; paper call: no_effect; wild-type window: …
LYPGIVTFVIASFTFPPGMGPFMAGELMPREAISTLFDNNT [Q412P Q412P] showed a mutation enrichment score of 4. For FRVSARNRVGTGEPVETDNPIEARSKYDVPGPPLNVTITDV [V14109I V14109I], the mutation enrichment score was -3.9.

The binders below were run against RAN2-B_Ran-BP1-PH-domain__P49792_2924_3050 in the same assay as above. Conditions: number of wild-type / mutant comparisons summed (bounds the score): 6; paper call: diminished; wild-type window: ….
Binder PSTSSEEEDPLAGISLPEGVNPSFLAALPDDIRREVLQNQL [D2969N D2969N] has a mutation enrichment score of -6. Work on DPLAGISLPEGVDPSFLAALHDDIRREVLQNQLGIRPPTRT [P2977H P2977H] yielded a mutation enrichment score of -6.

These binders were tested against PTBP1_RRM_2_P26599_157_285 in the same assay as above. Conditions: number of wild-type / mutant comparisons summed (bounds the score): 6; paper call: diminished; wild-type window: ….
PGLPGPVLPLNLAKNPLLPSLFGAGGLGLPVVSLLAGAAGG [P420L P420L] showed a mutation enrichment score of -6. For QNNNNRKTSNGDDSLFFSNFLLLGTPVLKDINFKIERGQLL [S434L S434L], the mutation enrichment score was -6.

What follows are binders tested against PPIA_full-length__P62937_1_165, P62937 in the same assay as above. Conditions: number of wild-type / mutant comparisons summed (bounds the score): 6; paper call: diminished; wild-type window: ….
In the case of TILGVLNGLVLLPVLLSFFGQYPEVSPANGLNRLPTPSPEP [P1180Q P1180Q], the mutation enrichment score is reported as -6.

Each binder was assayed against RAN2-B_Ran-BP1-PH-domain__P49792_2924_3050 in the same assay as above. Conditions: number of wild-type / mutant comparisons summed (bounds the score): 6; paper call: enhanced; wild-type window: ….
For KQLVEDLDRIVALTSNQEYLYLSMPLDQYSPSFPDTRSSTC [D768Y D768Y], the mutation enrichment score was 6.
